# Experimental data reported in paper PMC4336329 (PLoS ONE, 2015).
# The campaign covered roughly 310,000 compounds. About 14,000 (4.5%) showed an effect of 50% or more. The effect is printed as a negative number. The list shows a part of the results.
# Biological target: human ether-à-go-go-related gene (hERG) potassium channel (human, UniProt Q12809)
# Test: primary screen, population patch clamp on CHO cells stably expressing hERG
# 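Further: peak tail current of the secondary pulse compared with the same well before compound.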
# Sequence of human ether-à-go-go-related gene (hERG) potassium channel (Q12809 whole entry, looked up): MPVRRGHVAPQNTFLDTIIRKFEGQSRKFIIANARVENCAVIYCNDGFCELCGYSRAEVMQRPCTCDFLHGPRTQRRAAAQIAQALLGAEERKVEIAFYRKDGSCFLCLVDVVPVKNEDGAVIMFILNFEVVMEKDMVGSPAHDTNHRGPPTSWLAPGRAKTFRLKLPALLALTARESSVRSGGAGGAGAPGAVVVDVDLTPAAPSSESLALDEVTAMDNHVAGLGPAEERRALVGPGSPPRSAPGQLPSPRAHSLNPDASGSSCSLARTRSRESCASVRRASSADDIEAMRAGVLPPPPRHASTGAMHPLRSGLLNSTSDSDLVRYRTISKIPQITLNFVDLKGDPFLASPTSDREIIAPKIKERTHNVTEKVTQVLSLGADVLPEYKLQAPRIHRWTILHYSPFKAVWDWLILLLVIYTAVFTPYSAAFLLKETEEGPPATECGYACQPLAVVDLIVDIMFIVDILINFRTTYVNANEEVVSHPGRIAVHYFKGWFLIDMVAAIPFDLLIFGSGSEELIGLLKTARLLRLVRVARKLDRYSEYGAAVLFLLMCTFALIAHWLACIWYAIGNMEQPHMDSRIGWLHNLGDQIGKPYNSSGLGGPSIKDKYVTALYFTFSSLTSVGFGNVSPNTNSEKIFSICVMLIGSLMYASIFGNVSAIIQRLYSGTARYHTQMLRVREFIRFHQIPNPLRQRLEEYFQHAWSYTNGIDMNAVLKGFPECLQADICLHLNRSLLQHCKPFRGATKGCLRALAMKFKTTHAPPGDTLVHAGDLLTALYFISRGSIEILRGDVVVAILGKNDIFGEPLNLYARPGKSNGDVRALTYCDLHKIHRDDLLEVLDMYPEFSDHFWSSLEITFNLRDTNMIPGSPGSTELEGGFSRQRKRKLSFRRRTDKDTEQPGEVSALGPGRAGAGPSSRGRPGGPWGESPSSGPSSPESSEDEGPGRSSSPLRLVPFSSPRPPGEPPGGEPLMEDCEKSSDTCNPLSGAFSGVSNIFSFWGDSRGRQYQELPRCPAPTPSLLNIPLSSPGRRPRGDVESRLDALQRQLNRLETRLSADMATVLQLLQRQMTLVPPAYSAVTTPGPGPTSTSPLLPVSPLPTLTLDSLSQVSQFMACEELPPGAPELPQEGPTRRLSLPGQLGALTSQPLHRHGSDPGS
row,Compound,"hERG current change (%, negative = inhibition) at 10uM"
1,CCOC(=O)N1CCC(n2c(=S)[nH]c3cc(OCC)c(OCC)cc3c2=O)CC1,0.579%
2,CN1C(=O)[C@H]2[C@@H](C3CC3)N3C(=O)CN(CCO)C(=O)[C@@]3(Cc3ccccc3)[C@H]2C1=O,6.03%
3,Cc1[nH]c2ccccc2c1/C=N/NC(=O)CNC(=O)c1cccs1,11.4%
4,O=C(CN1C(=O)NC2(CCCC2)C1=O)Nc1ccc(Cl)cc1C(F)(F)F,6.83%
5,Cc1ccc(C(=O)CSc2nc3ccccc3c(=O)n2N)o1,-1.95%
6,CCOC(=O)C1CCN(C(=O)Nc2ccc3oc(C)nc3c2)CC1,7.35%
7,CCOC(=O)CCCCC(=O)c1[nH]c(=O)[nH]c1CSc1nc(C)cc(=O)[nH]1,15.1%
8,CCOc1ccc(C(=O)CCN2CCOCC2)cc1.Cl,6.35%
9,CC(=O)N/C(=N\c1nc(C)cc(C)n1)Nc1ccc(Cl)cc1Cl,17.7%
10,CCN(CC(=O)NC1CCS(=O)(=O)C1)S(=O)(=O)c1cc([N+](=O)[O-])ccc1C (centres unmarked),-4.81%
11,COc1ccc(NC(=O)c2nc3ccccc3s2)cc1,1.34%
12,COc1ccc(C2N(C(C)=O)CCN2S(=O)(=O)c2ccc(C)cc2)cc1 (centres unmarked),-8.25%
13,COc1ccc(CC2(CO)CCN(Cc3nc(C(C)C)cs3)CC2)cc1,-48.4%
14,COc1ccc(CCCC(=O)NCCc2ccccc2)cc1,8.84%
15,O=C1NC2(CCCCC2)N=C1c1ccc(Br)cc1,7.33%
16,O=C(CCc1ccccc1)Nc1ccccc1C(=O)N1CCOCC1,9.16%
17,O=c1[nH]c2ccc(NC(=S)Nc3ccc(Cl)cc3)cc2[nH]1,16.8%
18,COc1ccc2c(C#N)c3ccccn3c2c1,-3.17%
19,C=COCCNC(=S)N1CCOCCOCCN(C(=S)NCCOC=C)CCOCC1,55.7%

row,Compound,"hERG current change (%, negative = inhibition) at 10uM"
1,CC1CCN(C(=O)CN(CCc2ccccc2)S(C)(=O)=O)CC1,-0.154%
2,O=C1NC(c2ccccc2Br)=N/C1=C\c1ccco1,2.86%
3,O=C(NC(=S)NCc1ccccc1)C1CC1,7.43%
4,COc1ccc(C2N(c3cccc(Cl)c3)C(=O)C3CCCN32)cc1 (centres unmarked),-4.79%
5,Cc1cccnc1NC(=O)CCc1nnc2ccc(NCc3ccco3)nn12,8.84%
6,CCN(CC)c1ccc(S(=O)(=O)N2CCOCC2)cc1NC(=O)CSc1nnc(N)s1,-21.1%
7,CCOc1ccc(C2/C(=C(/O)c3ccc(F)cc3)C(=O)C(=O)N2CCCN(C)C)cc1 (centres unmarked),16.4%
8,COC(=O)Cn1cnc2c(cnn2-c2ccc(C)cc2)c1=O,-2.53%
9,Cc1ccc(N(C(=O)c2ccc(S(=O)(=O)N3CCOCC3)cc2)C2C=CS(=O)(=O)C2)cc1C (centres unmarked),-6.34%
10,COc1cc(/C=N/NC(=O)c2ccc(C)nc2)cc([N+](=O)[O-])c1O,12.8%
11,COc1ccc(C(C(=O)NC2CCCCC2)N(C(=O)Cc2c[nH]c3ccccc23)c2ccccc2C)cc1OC (centres unmarked),0.528%
12,Cc1ccc2cc3cc(C(=O)N(CC(=O)NC4CCCC4)c4cccc(C)c4C)sc3nc2c1,-9.68%
13,O=c1[nH]nc(-c2ccc(NCCCO)c([N+](=O)[O-])c2)c2ccccc12,-9.98%
14,Cc1ccc2nc(NC(=O)c3ccc4c(c3)OCO4)sc2c1,3.26%
15,NS(=O)(=O)c1ccc(CCNC(=O)C2COc3ccccc3O2)cc1 (centres unmarked),-13.4%
16,CCN1C(=O)[C@@H]2[C@@H](c3ccc(SC4CCCCC4)cc3)N3CCC[C@@]3(C(=O)OC)[C@@H]2C1=O.O=C(O)C(F)(F)F,-12.7%
17,Cc1cc2[nH]c(=O)c(=O)[nH]c2cc1S(=O)(=O)Nc1cccc(C)c1C,23.1%
18,CC12CCC(C(=O)N3CCCc4ccccc43)(CC1=O)C2(C)C (centres unmarked),4.14%
19,CCOc1ccccc1-n1nnnc1SCC(=O)O,-3.73%

row,Compound,"hERG current change (%, negative = inhibition) at 10uM"
1,O=C(CCC1CCCC1)Nc1nnc(-c2ccc3c(c2)OCO3)s1,4.71%
2,Cc1cc(Nc2ccc(C)c(C)c2)n2nc(C)nc2n1,-29.5%
3,COc1ccccc1CN1CC(C(=O)NCc2c(F)ccc(C)c2F)CCC1=O (centres unmarked),4.66%
4,Cc1ccccc1CNC(=O)/C=C\C(=O)O,3.23%
5,O=C(Oc1c(CN2CCOCC2)cc(Cl)c2cccnc12)c1cccs1,-21.9%
6,Cn1c2ccccc2c2nnc(NN)nc21,12.2%
7,Cn1c(SCC(=O)N2CCOCC2)nc2c(c1=O)SCC2,15.8%
8,Cc1ccc2nc(N/N=C/c3ccccc3F)nc(-c3ccccc3)c2c1,0.778%
9,COc1ccccc1N1CCN(C(=O)CCCCCn2c(=O)[nH]c3ccsc3c2=O)CC1,-24.7%
10,CCOc1ccc(NC(=O)CN(C)C(=O)c2ccccc2OCc2cccc(C)c2)cc1OCC,-10.3%
11,CCC(=O)Nc1cccc(NC(=O)CSc2nc3c(c(=O)n(C)c(=O)n3C)n2C)c1,18%
12,O=P(NS(=O)(=O)c1ccc(Br)cc1)(Oc1ccccc1)Oc1ccccc1,12.2%
13,Cc1ccc(OCC(=O)Nc2ccc(S(=O)(=O)N(C)C3CCN(C)CC3)cc2)c(C)c1,-2.32%
14,O=C(CSc1n[nH]c(-c2cccnc2)n1)Nc1ccccc1[N+](=O)[O-],-0.464%
15,CC(C)(C)NC(=O)NC(=O)CN1CCN(c2ccccc2)CC1,-22.6%
16,COc1ccc(CCNC(=O)c2cc3sccc3n2C)cc1OC,-6.67%
17,CCCC(=O)Nc1ccc(NC(=O)c2ccccc2OC)cn1,-8.93%
18,Cc1noc(NS(=O)(=O)c2ccc(N/C=C\C(=O)c3cccs3)cc2)c1C,19.1%
